Drawing on the supplement of paper PMC4604168 (melanoma cell lines), this text covers cell count for 24 molecules.

Test systems include 501Mel; A101D; A2058; A375.
What all share (test): cell count relative to DMSO control; melanoma cells; higher = more viable cells
Settings in all cases: library dose: standard library concentration; 72 h

The structures appear in SMILES notation. This is one part of the list. Single values are uncertain, as repeats are few or missing.
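Also: cells treated in 1,536-well plates, then fixed and DAPI-stained, with nuclei counted from automated high-throughput microscope images.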

For `N#CC[C@H](C1CCCC1)n1cc(-c2ncnc3[nH]ccc23)cn1` [ruxolitinib] + COc1ccc(COc2ccc(Cc3cnc(N)nc3N)cc2OC)cc1 [GW2580] (first compound 5 µM, partner dose 5 µM), the cell count amounted to 92.2% in the test on 501Mel, 121% in the test with A101D, 85.4% in the test with A2058 and 134% with A375.
On to `CC[C@]1(O)C[C@H]2CN(CCc3c([nH]c4ccccc34)[C@@](C(=O)OC)(c3cc4c(cc3OC)N(C=O)[C@H]3[C@@](O)(C(=O)OC)[C@H](OC(C)=O)[C@]5(CC)C=CCN6CC[C@]43[C@@H]65)C2)C1` [vincristine] + c1cc(-c2cnn3cc(-c4ccc(OCCN5CCCCC5)cc4)cnc23)ccn1 [Dorsomorphin] (first compound 0.0005 µM, partner dose 2 µM), for which the cell count is 20.3% with 501Mel, 45.7% in the test with A101D, 2.57% in the test on A2058 and 49.2% in the test on A375.
As to `Cc1cc(Nc2cc(N3CCN(C)CC3)nc(Sc3ccc(NC(=O)C4CC4)cc3)n2)n[nH]1` [Tozasertib] + CCN(CC)CCCCNc1ncc2cc(-c3cc(OC)cc(OC)c3)c(NC(=O)NC(C)(C)C)nc2n1 [PD173074] (first compound 0.03 µM, partner dose 0.5 µM), the cell count in the test on 501Mel came to 78.7%; in the test on A101D, 85.8%; in the test on A2058, 92.1%; in the test on A375, 138%.
On to `Cc1cc(Nc2cc(N3CCN(C)CC3)nc(Sc3ccc(NC(=O)C4CC4)cc3)n2)n[nH]1` [Tozasertib] + N#Cc1c(O)c2c(-c3ccc(-c4ccccc4O)cc3)csc2[nH]c1=O [A769662] (first compound 0.03 µM, partner dose 10 µM), for which the cell count in the test with 501Mel is 81.1%; in the test with A101D, 99.7%; with A2058 it was 85.7%; in the test with A375, 92.8%.
Turning to `Cc1cc(Nc2cc(N3CCN(C)CC3)nc(Sc3ccc(NC(=O)C4CC4)cc3)n2)n[nH]1` [Tozasertib] + O=C(Nc1ccccc1)c1cc([N+](=O)[O-])ccc1Cl [GW9662] (first compound 0.03 µM, partner dose 10 µM), the cell count in the test with 501Mel is 114%; with A101D, 70.2%; in the test with A2058, 86.5%; in the test on A375, 122%.
In the case of `N#CC[C@H](C1CCCC1)n1cc(-c2ncnc3[nH]ccc23)cn1` [ruxolitinib] + O=C1NC(=O)/C(=C/c2ccc(-c3ccc(F)cc3O)o2)S1 [AS252424] (first compound 5 µM, partner dose 5 µM), the cell count with 501Mel amounted to 123%; in the test on A101D, 130%; in the test on A2058 it was 83.2%; with A375 it was 150%.
For `CC[C@]1(O)C[C@H]2CN(CCc3c([nH]c4ccccc34)[C@@](C(=O)OC)(c3cc4c(cc3OC)N(C=O)[C@H]3[C@@](O)(C(=O)OC)[C@H](OC(C)=O)[C@]5(CC)C=CCN6CC[C@]43[C@@H]65)C2)C1` [vincristine] + Cc1cc([N+](=O)[O-])ccc1NS(=O)(=O)c1cc(Cl)ccc1Cl [FH535] (first compound 0.0005 µM, partner dose 5 µM), in that order: 45.1%, 49.3%, 8.12% and 69.1%.
Turning to `Cc1cc(Nc2cc(N3CCN(C)CC3)nc(Sc3ccc(NC(=O)C4CC4)cc3)n2)n[nH]1` [Tozasertib] + c1cc(-c2cnn3cc(-c4ccc(OCCN5CCCCC5)cc4)cnc23)ccn1 [Dorsomorphin] (first compound 0.03 µM, partner dose 2 µM), the cell count with 501Mel came to 62.3%; in the test on A101D, 91.2%; in the test on A2058, 49.3%; in the test on A375, 117%.
For `CC[C@]1(O)C[C@H]2CN(CCc3c([nH]c4ccccc34)[C@@](C(=O)OC)(c3cc4c(cc3OC)N(C=O)[C@H]3[C@@](O)(C(=O)OC)[C@H](OC(C)=O)[C@]5(CC)C=CCN6CC[C@]43[C@@H]65)C2)C1` [vincristine] + CC(C)CCN1c2nc(Nc3cc(F)c(O)c(F)c3)ncc2N(C)C(=O)C1C [BID1870] (first compound 0.0005 µM, partner dose 1 µM), in that order: 35.3%, 39.7%, 10.5% and 123%.
The like results for `CC[C@]1(O)C[C@H]2CN(CCc3c([nH]c4ccccc34)[C@@](C(=O)OC)(c3cc4c(cc3OC)N(C=O)[C@H]3[C@@](O)(C(=O)OC)[C@H](OC(C)=O)[C@]5(CC)C=CCN6CC[C@]43[C@@H]65)C2)C1` [vincristine] + CCc1ccc(CCOc2ccc(CC3SC(=O)NC3=O)cc2)nc1 [pioglitazone] (first compound 0.0005 µM, partner dose 10 µM) were, in that order, 27.9%, 33.9%, 8.22% and 87.4%.
Regarding `N#CC[C@H](C1CCCC1)n1cc(-c2ncnc3[nH]ccc23)cn1` [ruxolitinib] + Cc1cc([N+](=O)[O-])ccc1NS(=O)(=O)c1cc(Cl)ccc1Cl [FH535] (first compound 5 µM, partner dose 5 µM), the cell count stood at 75.6% with 501Mel, 73.3% in the test with A101D, 64.9% with A2058 and 101% in the test on A375.
`CC[C@]1(O)C[C@H]2CN(CCc3c([nH]c4ccccc34)[C@@](C(=O)OC)(c3cc4c(cc3OC)N(C=O)[C@H]3[C@@](O)(C(=O)OC)[C@H](OC(C)=O)[C@]5(CC)C=CCN6CC[C@]43[C@@H]65)C2)C1` [vincristine] + Oc1nc(-c2ccc(C(F)(F)F)cc2)nc2c1CSCC2 [XAV939] (first compound 0.0005 µM, partner dose 10 µM): the cell count turned out to be 99% in the test with 501Mel, 56.1% with A101D, 23.2% with A2058 and 98.3% in the test with A375.
Turning to `CC[C@]1(O)C[C@H]2CN(CCc3c([nH]c4ccccc34)[C@@](C(=O)OC)(c3cc4c(cc3OC)N(C=O)[C@H]3[C@@](O)(C(=O)OC)[C@H](OC(C)=O)[C@]5(CC)C=CCN6CC[C@]43[C@@H]65)C2)C1` [vincristine] + O=c1cc(-c2cccc3c2Sc2ccccc2S3)oc(N2CCOCC2)c1 [KU55933] (first compound 0.0005 µM, partner dose 5 µM), the cell count was determined as 63.1% in the test with 501Mel, 28.9% in the test with A101D, 11.2% in the test with A2058 and 109% in the test with A375.
The like results for `CC[C@]1(O)C[C@H]2CN(CCc3c([nH]c4ccccc34)[C@@](C(=O)OC)(c3cc4c(cc3OC)N(C=O)[C@H]3[C@@](O)(C(=O)OC)[C@H](OC(C)=O)[C@]5(CC)C=CCN6CC[C@]43[C@@H]65)C2)C1` [vincristine] + COc1cc2ncnc(Nc3ccc(Oc4ccccc4)cc3)c2cc1OC [SrcI1] (first compound 0.0005 µM, partner dose 10 µM) were, in that order, 65.5%, 53.3%, 51.6% and 99%.
For `N#CC[C@H](C1CCCC1)n1cc(-c2ncnc3[nH]ccc23)cn1` [ruxolitinib] + Oc1cc(-c2nc(-c3ccccc3)[nH]c2-c2ccncc2)ccc1Cl [L779450] (first compound 5 µM, partner dose 1 µM), the cell count in the test on 501Mel was 78.1%; in the test on A101D it was 83.3%; in the test with A2058, 70.2%; in the test on A375, 130%.
With `N#CC[C@H](C1CCCC1)n1cc(-c2ncnc3[nH]ccc23)cn1` [ruxolitinib] + COc1ccc2c(c1)CCC1C2CCC2(C)C(NCCCCCCN3C(=O)C=CC3=O)CCC12 [U73122] (first compound 5 µM, partner dose 2 µM), the cell count amounted to 90.3% with 501Mel, 71.2% in the test on A101D, 42.9% with A2058 and 90.4% in the test with A375.
`Cc1cc(Nc2cc(N3CCN(C)CC3)nc(Sc3ccc(NC(=O)C4CC4)cc3)n2)n[nH]1` [Tozasertib] + COc1cc2ncnc(Nc3ccc(Oc4ccccc4)cc3)c2cc1OC [SrcI1] (first compound 0.03 µM, partner dose 10 µM): the cell count in the test on 501Mel came out at 78.7%; in the test with A101D it was 53.4%; in the test with A2058 it was 81%; in the test with A375 it was 120%.
With `CC[C@]1(O)C[C@H]2CN(CCc3c([nH]c4ccccc34)[C@@](C(=O)OC)(c3cc4c(cc3OC)N(C=O)[C@H]3[C@@](O)(C(=O)OC)[C@H](OC(C)=O)[C@]5(CC)C=CCN6CC[C@]43[C@@H]65)C2)C1` [vincristine] + COc1ccc(COc2ccc(Cc3cnc(N)nc3N)cc2OC)cc1 [GW2580] (first compound 0.0005 µM, partner dose 5 µM), the cell count in the test with 501Mel was 91.8%; with A101D, 95%; in the test on A2058 it was 98%; in the test on A375, 86.1%.
In the case of `Cc1cc(Nc2cc(N3CCN(C)CC3)nc(Sc3ccc(NC(=O)C4CC4)cc3)n2)n[nH]1` [Tozasertib] + COC(=O)c1sccc1S(=O)(=O)Nc1ccc(Nc2ccccc2)cc1OC [GSK0660] (first compound 0.03 µM, partner dose 5 µM), the cell count was 53.9% in the test on 501Mel, 75.1% in the test on A101D, 78.1% in the test on A2058 and 84% in the test on A375.
As for `N#CC[C@H](C1CCCC1)n1cc(-c2ncnc3[nH]ccc23)cn1` [ruxolitinib] + O=c1cc(-c2cccc3c2Sc2ccccc2S3)oc(N2CCOCC2)c1 [KU55933] (first compound 5 µM, partner dose 5 µM), the figures for the cell count in the test with 501Mel, in the test with A101D and with A2058 were 83.2%, 106% and 68%, respectively.
`CC[C@]1(O)C[C@H]2CN(CCc3c([nH]c4ccccc34)[C@@](C(=O)OC)(c3cc4c(cc3OC)N(C=O)[C@H]3[C@@](O)(C(=O)OC)[C@H](OC(C)=O)[C@]5(CC)C=CCN6CC[C@]43[C@@H]65)C2)C1` [vincristine] + O=S(=O)(c1ccccc1)N(CC(F)(F)F)c1ccc(C(O)(C(F)(F)F)C(F)(F)F)cc1 [T0901317] (first compound 0.0005 µM, partner dose 7 µM): the cell count in the test with 501Mel stood at 83%; with A101D, 50.2%; with A2058, 13.4%; in the test with A375, 94.6%.
`N#CC[C@H](C1CCCC1)n1cc(-c2ncnc3[nH]ccc23)cn1` [ruxolitinib] + CCc1ccc(CCOc2ccc(CC3SC(=O)NC3=O)cc2)nc1 [pioglitazone] (first compound 5 µM, partner dose 10 µM): the cell count with 501Mel worked out at 118%; in the test with A101D, 126%; with A2058 it was 74.3%; with A375, 96.5%.
Turning to `N#CC[C@H](C1CCCC1)n1cc(-c2ncnc3[nH]ccc23)cn1` [ruxolitinib] + COc1cc(N2CCC(N3CCN(C)CC3)CC2)ccc1Nc1ncc(Cl)c(Nc2ccccc2S(=O)(=O)C(C)C)n1 [NVP-TAE684] (first compound 5 µM, partner dose 0.4 µM), the cell count with 501Mel was 72.1%; in the test on A101D, 92.8%; with A2058 it was 40.5%; with A375, 101%.
Regarding `CC[C@]1(O)C[C@H]2CN(CCc3c([nH]c4ccccc34)[C@@](C(=O)OC)(c3cc4c(cc3OC)N(C=O)[C@H]3[C@@](O)(C(=O)OC)[C@H](OC(C)=O)[C@]5(CC)C=CCN6CC[C@]43[C@@H]65)C2)C1` [vincristine] + N#Cc1c(O)c2c(-c3ccc(-c4ccccc4O)cc3)csc2[nH]c1=O [A769662] (first compound 0.0005 µM, partner dose 10 µM), the cell count was determined as 41.9% in the test on 501Mel, 48.7% in the test with A101D, 8.95% in the test with A2058 and 106% with A375.
